# Reference: PMC4336329 (PLoS ONE, 2015)
# Screen size: about 310,000 compounds; about 14,000 (4.5%) showed an effect of 50% or more. The effect is printed as a negative number. Some of the results follow.
# Molecular target: human ether-à-go-go-related gene (hERG) potassium channel (human, UniProt Q12809)
# Assay: primary screen, population patch clamp on CHO cells stably expressing hERG
# 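Further: peak tail current of the secondary pulse compared with the same well before compound.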
# Sequence of human ether-à-go-go-related gene (hERG) potassium channel (Q12809 whole entry, looked up): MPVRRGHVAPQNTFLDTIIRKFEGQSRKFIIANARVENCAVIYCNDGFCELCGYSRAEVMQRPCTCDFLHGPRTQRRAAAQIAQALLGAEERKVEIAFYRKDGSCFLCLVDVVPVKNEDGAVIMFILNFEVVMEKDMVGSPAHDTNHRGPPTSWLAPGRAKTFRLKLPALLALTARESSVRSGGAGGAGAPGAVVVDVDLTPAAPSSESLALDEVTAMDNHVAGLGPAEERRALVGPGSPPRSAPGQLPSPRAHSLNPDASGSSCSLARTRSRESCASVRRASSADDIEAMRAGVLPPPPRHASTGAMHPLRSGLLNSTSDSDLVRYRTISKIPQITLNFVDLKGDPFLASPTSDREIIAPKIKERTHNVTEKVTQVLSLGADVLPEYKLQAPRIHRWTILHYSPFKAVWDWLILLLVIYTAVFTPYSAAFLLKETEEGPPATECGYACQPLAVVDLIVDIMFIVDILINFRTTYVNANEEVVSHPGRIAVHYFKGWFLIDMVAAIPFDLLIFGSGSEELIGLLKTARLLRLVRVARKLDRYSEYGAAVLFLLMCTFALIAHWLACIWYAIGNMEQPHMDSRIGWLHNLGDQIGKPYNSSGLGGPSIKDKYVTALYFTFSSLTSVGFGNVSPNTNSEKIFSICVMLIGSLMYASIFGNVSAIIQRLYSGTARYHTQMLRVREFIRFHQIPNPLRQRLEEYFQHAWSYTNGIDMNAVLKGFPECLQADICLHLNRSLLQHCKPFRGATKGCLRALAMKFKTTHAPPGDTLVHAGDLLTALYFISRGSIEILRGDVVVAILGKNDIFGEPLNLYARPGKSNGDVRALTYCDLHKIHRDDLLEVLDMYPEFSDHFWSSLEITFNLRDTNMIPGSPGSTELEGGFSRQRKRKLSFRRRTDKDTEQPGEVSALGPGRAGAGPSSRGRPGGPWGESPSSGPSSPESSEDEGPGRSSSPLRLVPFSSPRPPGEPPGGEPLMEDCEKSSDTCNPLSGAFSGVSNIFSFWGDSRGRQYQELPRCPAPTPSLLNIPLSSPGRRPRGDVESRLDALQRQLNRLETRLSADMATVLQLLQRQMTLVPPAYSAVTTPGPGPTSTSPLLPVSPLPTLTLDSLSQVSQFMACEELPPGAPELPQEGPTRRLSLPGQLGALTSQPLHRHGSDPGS
row,SMILES,"hERG current change (%, negative = inhibition) at 10uM [%]"
1,CCN(CC)C(=O)c1cccc(C)c1,0.757
2,CS(=O)(=O)Nc1ccc(C(=O)N2CCN(c3ccccc3F)CC2)cc1,-68.1
3,CCCc1cc(=O)[nH]c(SCC(=O)Nc2ccc(Br)cc2Br)n1,12.2
4,Cc1ccc(-c2nc3ccccc3c(=O)n2N)cc1,-5.67
5,COc1cccc(CNC(=O)C2CCN(c3cnccn3)CC2)c1,-12.4
6,CC(C)C(=O)Nc1ccc(-c2nc3ncccc3o2)cc1,-3.36
7,OCCC1CN(Cc2cccn2-c2cccnc2)CCN1C1CCCCC1 (stereo not shown),-28.1
8,O=C(c1ccc(C(F)(F)F)cc1)C1CCCN(Cc2ccc(CO)o2)C1 (stereo not shown),-24.6
9,OCc1cccnc1,21.3
10,CCOc1ccc(NC(=O)N(C2CCCC2)C2CCN(C(C)=O)CC2)cc1,-0.735
11,Cc1nc2c(ncn2-c2ccccc2)c(=O)n1NC(=O)CN1CCCCC1,17.4
12,COCCOn1c(SCCOC)nc2ccccc2c1=O,-4.58
13,Cc1c(OC(=O)CNC(=O)OC(C)(C)C)ccc2c3c(c(=O)oc12)CCC3,-0.415
14,S=c1[nH]nc(-c2cccs2)n1/N=C/c1cn(-c2ccccc2)nc1-c1ccccc1,18
15,N#Cc1ccc(N2CCCC2C(=O)O)c([N+](=O)[O-])c1 (stereo not shown),13.1
16,Cc1c(NC(=O)C2(c3ccccc3)CCCC2)c(=O)n(-c2ccccc2)n1C,-1.94
17,Cc1cccc2c1cnn2C(=O)CCC(=O)NCc1ccc(F)cc1,-0.841
18,CCCOc1cccc(OCCSc2nc(C)cc(=O)[nH]2)c1,1.17
19,O=c1c2ccccc2oc2cc(OCc3ccc(F)cc3)cc(O)c12,19.4
20,CCN1CCN(C(=S)Nc2ccc3nc(N4CCN(C)CC4)cc(C)c3c2)CC1,-2.94
21,CCc1cc2c(-n3nc(C)cc3C)ncnc2s1,1.96
22,COc1ccc(CNC(=O)CCCn2nc(C)c([N+](=O)[O-])c2C)cc1OC,-14.8
23,Cc1oc(C(C)(C)C)cc1C(=O)Nc1ccc2c(c1)OCO2,9.23

row,SMILES,"hERG current change (%, negative = inhibition) at 10uM [%]"
1,O=C(Nc1ccc(N2CCOCC2)c(Cl)c1)c1ncn[nH]1,-3.02
2,O=C(CN1CCOCC1)Nc1ccccc1C(=O)O,-32.3
3,Cc1ccc(OCCC(=O)Nc2c(C)n(C)n(-c3ccccc3)c2=O)cc1,-3.74
4,O=C(C(Cl)Cl)N1CCN(Cc2ccccc2)CC1,-4.72
5,CSc1ccccc1NC(=O)c1csc(C)c1,13.8
6,CCOC(=O)c1c(-c2ccc(F)cc2)cn2ccccc12,14.2
7,COC(=O)[C@H](CCSC)NC(=O)NCc1cccs1,20.6
8,CCCN1C=CC(=C2C(=O)c3ccccc3C2=O)C=C1,-23.8
9,Cc1cc(C)c2c(n1)sc1c(=O)n(Cc3ccc(F)cc3)cnc12,11
10,CCOc1ccc(N)cc1OC.Cl,5.32
11,COc1ccc(C)cc1NC(=O)c1cc2c(CO)cnc(C)c2oc1=N,9.84
12,CN(Cc1ccccc1)S(=O)(=O)c1ccc(Cl)c(C(=O)NCc2ccc3c(c2)OCO3)c1,5.48
13,COc1c(Cl)cc(Cl)cc1CNCc1ccccc1.Cl,-27
14,CCOC(=O)N1CCC(NC(=O)c2ccc(CNS(=O)(=O)c3ccc(F)cc3)cc2)CC1,-6.82
15,Cc1cc(SC(C)C(=O)O)nc2ccccc12 (stereo not shown),21.6
16,COc1ccc(Cl)cc1NC(=O)CN(C)C(=O)CN1C(=O)NC2(CCCC2)C1=O,2.29
17,Cc1noc(C)c1C(=O)OC(C)C(=O)Nc1ccc(S(=O)(=O)NC(C)C)cc1 (stereo not shown),-9.36
18,O=C(C1=C[C@@H](c2ccc(Br)cc2)C[C@@H](OCCCCO)O1)N1CCN(Cc2ccccc2)CC1,-91.7
19,Cc1ccc(C(=O)CSC2=NC(N)=C(C#N)C3(CCCCC3)C2C(N)=O)cc1 (stereo not shown),-14.8
20,CC(c1ccccc1)c1nnc(NC(=O)c2ccc3c(c2)OCO3)s1 (stereo not shown),7.96
21,CCCN[C@H]1CCc2nc(N)sc2C1,-9.81
22,Cc1cc(C(=O)Nc2sc3c(c2C#N)CCC3)no1,16.9
23,COC(=O)CCC(=O)OC1(C)C(=O)C=C2C=C(c3ccsc3)OC=C2C1=O (stereo not shown),1.22

row,SMILES,"hERG current change (%, negative = inhibition) at 10uM [%]"
1,CCOC(=O)c1c(C)[nH]c(C(=O)N(C)Cc2cccc(OC)c2OC)c1C,8.92
2,O=C(COc1ccccc1)Nc1ccc2c(c1)nc1n2CCSC1,-18.6
3,CCC(NS(=O)(=O)c1ccc(OC)cc1)C(=O)NCCC1=CCCCC1 (stereo not shown),8.58
4,CCCN1CCN(S(=O)(=O)c2ccc(OC)c(Br)c2)CC1,-3.75
5,O=C(COc1cccnc1[N+](=O)[O-])Nc1cccc2ccccc12,6.49
6,Cc1nc2c(=O)n(-c3cccc(C(F)(F)F)c3)nc(C)c2s1,10
7,Cc1ccc(C(=O)N/C(=C/c2ccco2)C(=O)N2CCCCC2)cc1,-30.3
8,CCc1ccc(NC(=O)CSc2nnc(C)c(=O)n2N)cc1,11.6
9,Cc1cccc(-n2c(C)nc3ccsc3c2=O)c1,19.7
10,Cc1sc2nc(CSc3nnnn3-c3ccc(Cl)cc3)[nH]c(=O)c2c1C,-6.71
11,CN1CCN(c2c[nH]c(=O)[nH]c2=O)CC1,-6.88
12,CC1=C(C)CC(C(=O)NNC(=O)c2cccc(Cl)c2)C(C(=O)O)C1 (stereo not shown),12.3
13,Cc1ccc(NC(=O)CSc2nnc(CNC(=O)c3ccco3)o2)cc1Cl,-0.744
14,Cc1nc2oc3c(NCc4ccccn4)ncnc3c2c2c1COC(C)(C)C2,-0.387
15,COc1ccc(C(=O)C2CCCN(Cc3ccc(C#CCCO)cc3)C2)cc1F (stereo not shown),-45.3
16,Cc1ccc(CNS(=O)(=O)c2ccc(-n3cnnn3)c(C)c2)cc1,-2.6
17,CCC(C(=O)NC1CCCC1)N(C(=O)c1snc(C(N)=O)c1N)c1ccc(OC)cc1 (stereo not shown),22.4
18,O=C(Cn1nnc2ccccc21)NNC(=S)NC1CCCCC1,20.3
19,Cc1cc(C)c2sc(N(CCCN(C)C)C(=O)c3ccc(S(=O)(=O)N4CCCc5ccccc54)cc3)nc2c1.Cl,0.702
20,COc1cccc(CC(=O)Nc2nc3ccccc3[nH]2)c1,10.7
21,NC(=O)CCNC(=O)c1ccc(Cl)cc1,11.1
22,O=C(O)C1C2C=CC(C2)C1C(=O)Nc1cccc(F)c1 (stereo not shown),7.94
23,O=C(Nc1c2c(nc3ccccc13)CCCC2)c1ccccc1F,-3

row,SMILES,"hERG current change (%, negative = inhibition) at 10uM [%]"
1,O=C(C[n+]1ccc2c(c1)nnn2-c1ccccc1)c1ccc(Cl)cc1.[Br-],-69
2,Cl.Fc1ccc(Nc2ncnc3ccccc23)cc1,10.7
3,CC(C)(C)OC(=O)N1CC(O)CC1C(=O)OCC(=O)c1ccc(-c2ccccc2)cc1 (stereo not shown),32
4,NC(=O)CSc1nnc(NC(=O)c2ccc(S(=O)(=O)N3CCCCC3)cc2)s1,-21
5,CCCCn1c(=O)[nH]c(=O)c2c1nc(-c1ccc(OC)c(Br)c1)n2CC(C)C,9.25
6,CCN1C(=O)C(O)(CC(=O)c2ccc(-n3cccc3)cc2)c2ccccc21 (stereo not shown),-13.1
7,COc1ccc2nc(SCC(=O)c3ccco3)[nH]c2c1,7.37
8,COC(=O)CC1C(=O)NCCN1C(=S)Nc1ccccc1 (stereo not shown),-2.53
9,CC12CN3CC(C)(CN(C1)C3c1ccc(Cl)cc1Cl)C2=O (stereo not shown),-10.5
10,CC(=O)N(CCc1ccccc1C)Cc1cc2cc(C)ccc2[nH]c1=O,25.3
11,CCCC[C@@H]1CNCCN1CCCc1cc(OC)c(OC)c(OC)c1,7.6
12,Cc1nn(C(C)C(=O)NCCCN(Cc2ccccc2)C(C)C)c(=O)c2c1sc1ccccc12 (stereo not shown),-11.7
13,COc1ccc(-c2cc3nc(C)n(N)c(=O)c3s2)cc1,5.36
14,COc1cccc(N2CCN(Cc3ccc(Cl)cc3)CC2)c1,-29.2
15,Cc1ccc2nc(-c3cc(N)cc(N)c3)oc2c1,7.93
16,Clc1ccccc1Cn1nnc2ccccc21,1.76
17,CCSc1nc2c(c(=O)[nH]1)C(c1ccccn1)C1=C(CC(C)(C)CC1=O)N2 (stereo not shown),-0.449
18,CC(C)CC(=O)NCCNC(=O)c1cc(OCC(F)(F)F)ccc1OCC(F)(F)F,1.39
19,N#CCCN(C(=O)COC(=O)c1ccc(S(=O)(=O)N2CCCCCC2)cc1)c1ccccc1,-2.66
20,COc1cc(CCC(=O)OCc2ccccc2C#N)cc(OC)c1OC,7.42
21,COC(=O)C1=C(c2cccc(OCc3ccccc3)c2)C[C@@H]2CC[C@H]1N2C(=O)NCc1ccc(N(C)C)cc1,15.6
22,COc1ccc(C(=O)CSc2nnc(CN3CCCCC3)n2-c2ccc(F)cc2)cc1OC,6.33
